Laboratory results taken from US20250129053A1, “HERBICIDAL IMIDAZOLE COMPOUNDS” (SYNGENTA CROP PROTECTION AG, priority 2021, published 2025).
The name of at least one read-out is uncertain.

Key:
Type in all cases: in vivo
Conditions in all cases: 250 g/ha, evaluated after 13 days, five-point scale
[1] = test system: Ipomoea hederacea (IPOHE); assay: Pre-emergence herbicidal glasshouse test
[2] = test system: Amaranthus retroflexus (AMARE); assay: Post-emergence herbicidal glasshouse test
Setaria faberi (SETFA) [3] = assay: Post-emergence herbicidal glasshouse test
[4] = test system: Echinochloa crus-galli (ECHCG); assay: Post-emergence herbicidal glasshouse test
[5] = test system: Ipomoea hederacea (IPOHE); assay: Post-emergence herbicidal glasshouse test
[6] = test system: Amaranthus retroflexus (AMARE); assay: Pre-emergence herbicidal glasshouse test
[7] = test system: Amaranthus palmeri (AMAPA); assay: Pre-emergence herbicidal glasshouse test
[8] = test system: Echinochloa crus-galli (ECHCG); assay: Pre-emergence herbicidal glasshouse test
[9] = test system: Amaranthus palmeri (AMAPA); assay: Post-emergence herbicidal glasshouse test
Setaria faberi (SETFA) [10] = assay: Pre-emergence herbicidal glasshouse test

Compound	percentage damage caused to the plant, IPOHE [1]	percentage damage caused to the plant, AMARE [2]	percentage damage caused to the plant, SETFA (Setaria faberi (SETFA) [3])	percentage damage caused to the plant, ECHCG [4]	percentage damage caused to the plant, IPOHE [5]	percentage damage caused to the plant, AMARE [6]	percentage damage caused to the plant, AMAPA [7]	percentage damage caused to the plant, ECHCG [8]	percentage damage caused to the plant, AMAPA [9]	percentage damage caused to the plant, SETFA (Setaria faberi (SETFA) [10])
Fc1ccc(-c2nc(C(F)(F)F)c(Cl)n2Cc2ncc(Cl)cn2)cc1 [Compound 1.053]	5 (5=81-100%)	5 (5=81-100%)	5 (5=81-100%)	5 (5=81-100%)	3 (3=41-60%)	5 (5=81-100%)	5 (5=81-100%)	5 (5=81-100%)	5 (5=81-100%)	5 (5=81-100%)
Cc1ncc(-c2nc(C(F)(F)F)cn2Cc2ncc(Cl)cn2)cn1 [Compound 1.006]	5 (5=81-100%)	5 (5=81-100%)	5 (5=81-100%)	5 (5=81-100%)	4 (4=61-80%)	5 (5=81-100%)	5 (5=81-100%)	5 (5=81-100%)	5 (5=81-100%)	5 (5=81-100%)
FC(F)c1cn(Cc2ncc(Cl)cn2)c(-c2ccc(C(F)(F)F)cc2)n1 [Compound 1.050]	5 (5=81-100%)	5 (5=81-100%)	5 (5=81-100%)	5 (5=81-100%)	4 (4=61-80%)	5 (5=81-100%)	5 (5=81-100%)	5 (5=81-100%)	–	5 (5=81-100%)
CS(=O)(=O)c1cn(Cc2ncc(Cl)cn2)c(-c2ccc(C(F)(F)F)cc2)n1 [Compound 1.048]	5 (5=81-100%)	5 (5=81-100%)	4 (4=61-80%)	4 (4=61-80%)	4 (4=61-80%)	5 (5=81-100%)	5 (5=81-100%)	4 (4=61-80%)	4 (4=61-80%)	4 (4=61-80%)
FC(F)(F)c1ccc(-c2nc(C(F)(F)F)cn2Cc2ncc(C3CC3)cn2)cc1 [Compound 1.066]	5 (5=81-100%)	5 (5=81-100%)	5 (5=81-100%)	4 (4=61-80%)	4 (4=61-80%)	5 (5=81-100%)	5 (5=81-100%)	5 (5=81-100%)	5 (5=81-100%)	5 (5=81-100%)
N#Cc1cn(Cc2ncc(Cl)cn2)c(-c2ccc(C(F)(F)F)cc2)n1 [Compound 1.014]	5 (5=81-100%)	5 (5=81-100%)	5 (5=81-100%)	5 (5=81-100%)	3 (3=41-60%)	5 (5=81-100%)	5 (5=81-100%)	5 (5=81-100%)	5 (5=81-100%)	5 (5=81-100%)
CS(=O)(=O)c1ccc(-c2nc(C(F)(F)F)cn2Cc2ncc(Cl)cn2)cn1 [Compound 1.035]	5 (5=81-100%)	5 (5=81-100%)	5 (5=81-100%)	4 (4=61-80%)	4 (4=61-80%)	5 (5=81-100%)	5 (5=81-100%)	5 (5=81-100%)	5 (5=81-100%)	5 (5=81-100%)
Cc1ccc(-c2nc(C(F)(F)F)cn2Cc2ncc(Cl)cn2)cc1 [Compound 1.009]	5 (5=81-100%)	5 (5=81-100%)	4 (4=61-80%)	4 (4=61-80%)	4 (4=61-80%)	5 (5=81-100%)	5 (5=81-100%)	5 (5=81-100%)	5 (5=81-100%)	5 (5=81-100%)
Clc1cnc(Cn2c(-c3ccc(Cl)nc3)nc(Cl)c2Cl)nc1 [Compound 1.065]	4 (4=61-80%)	5 (5=81-100%)	4 (4=61-80%)	3 (3=41-60%)	3 (3=41-60%)	5 (5=81-100%)	5 (5=81-100%)	4 (4=61-80%)	–	5 (5=81-100%)
FC(F)(F)c1cn(Cc2ncc(Cl)cn2)c(-c2ncc(Cl)cn2)n1 [Compound 1.040]	1 (1=0-20%)	1 (1=0-20%)	1 (1=0-20%)	1 (1=0-20%)	1 (1=0-20%)	–	1 (1=0-20%)	1 (1=0-20%)	1 (1=0-20%)	1 (1=0-20%)
N#Cc1cn(Cc2ncc(Cl)cn2)c(-c2ccc(Cl)cc2)n1 [Compound 1.051]	5 (5=81-100%)	5 (5=81-100%)	4 (4=61-80%)	4 (4=61-80%)	3 (3=41-60%)	5 (5=81-100%)	4 (4=61-80%)	5 (5=81-100%)	–	5 (5=81-100%)
Cc1cc(C)nc(Cn2cc(C(F)(F)F)nc2-c2ccc(C(F)(F)F)cc2)n1 [Compound 1.063]	1 (1=0-20%)	1 (1=0-20%)	–	1 (1=0-20%)	1 (1=0-20%)	1 (1=0-20%)	1 (1=0-20%)	1 (1=0-20%)	1 (1=0-20%)	–
Fc1cc(-c2nc(C(F)(F)F)cn2Cc2ncc(Cl)cn2)cnc1F [Compound 1.024]	5 (5=81-100%)	4 (4=61-80%)	–	3 (3=41-60%)	2 (2=21-40%)	5 (5=81-100%)	5 (5=81-100%)	5 (5=81-100%)	4 (4=61-80%)	–
COc1cc(-c2nc(C(F)(F)F)cn2Cc2ncc(Cl)cn2)cnc1Cl [Compound 1.021]	5 (5=81-100%)	5 (5=81-100%)	–	4 (4=61-80%)	4 (4=61-80%)	5 (5=81-100%)	5 (5=81-100%)	5 (5=81-100%)	5 (5=81-100%)	–
Fc1ccc(-c2nc(C(F)(F)F)cn2Cc2ncc(Cl)cn2)cn1 [Compound 1.043]	5 (5=81-100%)	5 (5=81-100%)	–	4 (4=61-80%)	5 (5=81-100%)	5 (5=81-100%)	5 (5=81-100%)	5 (5=81-100%)	5 (5=81-100%)	–
FC(F)(F)c1cn(Cc2ncc(Cl)cn2)c(-c2cnc(Cl)cn2)n1 [Compound 1.045]	2 (2=21-40%)	1 (1=0-20%)	–	1 (1=0-20%)	2 (2=21-40%)	1 (1=0-20%)	1 (1=0-20%)	1 (1=0-20%)	1 (1=0-20%)	–
FC(F)(F)c1cn(Cc2ncc(Cl)cn2)c(-c2ccc(Cl)cn2)n1 [Compound 1.044]	1 (1=0-20%)	3 (3=41-60%)	–	1 (1=0-20%)	2 (2=21-40%)	1 (1=0-20%)	1 (1=0-20%)	1 (1=0-20%)	3 (3=41-60%)	–
